Test results as given in article PMC11006472.
These are yes or no findings as the source states them, for the method shown. For some of these results: Binding seen in cells or lysates may run through a third protein. Some results given as binding are weak or reduced against the parent protein; the word gives no strength. For some of these results: Where a sequence is shown, tags or fusion partners need not be part of it. Values belong to the substance of their own block, whether it stands above or below them.

The chains behind the UniProt entries cited, without tags or fusion partners.
UniProt Q5J8M3: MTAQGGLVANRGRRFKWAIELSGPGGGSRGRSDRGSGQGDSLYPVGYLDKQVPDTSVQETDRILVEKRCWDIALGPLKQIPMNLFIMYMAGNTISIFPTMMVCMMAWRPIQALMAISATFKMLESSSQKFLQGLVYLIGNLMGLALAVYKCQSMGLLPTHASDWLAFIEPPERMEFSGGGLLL
UniProt P21796: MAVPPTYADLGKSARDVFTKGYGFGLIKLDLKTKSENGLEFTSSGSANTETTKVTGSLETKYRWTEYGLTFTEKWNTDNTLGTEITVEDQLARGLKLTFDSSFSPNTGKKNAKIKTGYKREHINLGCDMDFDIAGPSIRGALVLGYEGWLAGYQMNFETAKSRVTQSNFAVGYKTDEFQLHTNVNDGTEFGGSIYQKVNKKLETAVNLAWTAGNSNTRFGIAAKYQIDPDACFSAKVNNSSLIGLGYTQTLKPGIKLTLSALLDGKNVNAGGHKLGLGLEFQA

Assays:
EMC7-VC (human) = target: T1, EMC7-VC (human) (UniProt Q9NPA0); experiment: split reporter; BiFC with Venus VN (1–154) and VC (155–238) fused at the C termini, co-transfected 293T cells, imaged after 24 h (STED), mitochondria stained with MitoTracker
T1 sequence: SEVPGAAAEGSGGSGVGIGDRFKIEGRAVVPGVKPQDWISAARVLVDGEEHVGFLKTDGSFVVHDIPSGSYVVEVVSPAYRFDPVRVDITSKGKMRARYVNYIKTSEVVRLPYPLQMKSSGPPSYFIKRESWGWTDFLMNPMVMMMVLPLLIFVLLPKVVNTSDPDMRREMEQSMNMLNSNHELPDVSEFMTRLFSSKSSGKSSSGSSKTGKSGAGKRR

[1] = target: EMC4, subunit of human EMC (human (endogenous in Expi293F)) (UniProt Q5J8M3); experiment: cryo-EM structure; VDAC1-bound class of the purified human EMC sample in digitonin (complex co-purified from cells), single-particle cryo-EM, 3.32 Å
[2] = target: T2, EMC7, subunit of human EMC (endogenous) (human (endogenous in Expi293F)) (UniProt Q9NPA0); experiment: as above
T2 sequence: T1 sequence

[3] = target: T3, EMC3, subunit of human EMC (human (endogenous in Expi293F)) (UniProt Q9P0I2); experiment: as above
T3 sequence: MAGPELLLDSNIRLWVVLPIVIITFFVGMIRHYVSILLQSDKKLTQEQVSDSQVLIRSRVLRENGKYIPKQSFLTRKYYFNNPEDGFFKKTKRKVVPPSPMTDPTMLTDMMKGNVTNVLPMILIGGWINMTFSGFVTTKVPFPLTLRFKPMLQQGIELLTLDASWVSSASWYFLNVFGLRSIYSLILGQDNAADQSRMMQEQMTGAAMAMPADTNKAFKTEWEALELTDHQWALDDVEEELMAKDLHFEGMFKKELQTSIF

[4] = target: T4, wild type EMC7 fused with a 3xFlag tag (human) (UniProt Q9NPA0); experiment: co-IP; one-step purification on Flag agarose beads from 1% DDM lysate of EMC7 knockout Expi293F cells expressing 3xFlag EMC7 WT or EMC7^1–156, washed in 0.01% DDM EMC buffer, Flag peptide elution; silver-stained SDS-PAGE, Western blot, negative-stain EM
T4 sequence: T1 sequence

EMC7-smbit (human) = target: T5, EMC7-smbit (human) (UniProt Q9NPA0); experiment: split reporter; NanoBiT in HEK293T cells, 50 ng Lgbit plasmid and 50 ng smbit plasmid per well, C-terminal fusions, luminescence with furimazine 24 h after transfection
T5 sequence: T1 sequence

EMC7^1–156-smbit (human) = target: T6, EMC7^1–156-smbit (human) (UniProt Q9NPA0); experiment: as above
T6 sequence: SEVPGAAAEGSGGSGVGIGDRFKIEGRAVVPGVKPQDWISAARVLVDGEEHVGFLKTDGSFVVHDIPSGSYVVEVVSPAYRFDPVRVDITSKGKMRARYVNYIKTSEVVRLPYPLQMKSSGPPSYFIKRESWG

binding (EMC7-VC (human)): binds
Substance: VDAC1-VN (from UniProt P21796 1-283)

binding [1]: binds | binding [2]: binds | binding [3]: binds | binding [4]: binds
Substance: voltage-dependent anion channel 1 (VDAC1), endogenous (from UniProt P21796 1-283)

binding (EMC7-smbit (human)): binds | binding (EMC7^1–156-smbit (human)): no binding
Substance: VDAC1-Lgbit (from UniProt P21796 1-283)
